About 540 (0.36%) of roughly 150,000 compounds showed an effect of 50% or more. Some of the results follow.
What follows are molecules tested on Plasmodium falciparum (assay: Primary screen in NF54 nanoGlo assay, in single point, at 2uM, 72h; a lower Z score goes with more inhibition). Details: timepoint 72 hour.
Format: functional, Erythrocyte

Row | SMILES | % Inhibition | Z score
1 | CN1CCCN(CC(=O)Nc2ccc([C@@H](O)c3cccs3)cc2)CC1 | 18% | -2.45
2 | O=C(Nc1cnns1)N1CCC(n2cn[nH]c2=O)CC1 | 8% | -0.9
3 | C[C@@H](CN)Oc1cccc(CN(C)Cc2ccoc2)c1 | -12% | 1.38
4 | Cc1cc(C(=O)Nc2c(F)cccc2OCc2ccccc2)on1 | 32% | -3.44
5 | CC#CCCN1CCN(S(C)(=O)=O)CC1 | 17% | -1.9
6 | O=C(Nc1cccc(Cl)c1)O[C@H]1CCCc2ccccc21 | 8% | -0.92
7 | Cc1cc(C(=O)N[C@H](c2noc(O)n2)C(C)(C)C)ncn1 | -15% | 1.38
8 | COc1ccc(CC(=O)Nc2cnc(-n3ccnc3)nc2)cc1 | -4% | 0.6
9 | CC(C)N1CCN(C(=O)[C@@H]2CCCCC(=O)N2Cc2ccccc2)CC1 | -15% | 1.72
10 | CCOc1ccccc1C(=O)NCc1ccc(-c2ccco2)nc1 | -9% | 0.98
11 | CN(Cc1cccc(F)c1)C(=O)c1nnc(-c2ccncc2)o1 | 0% | -0.01
12 | Cc1nc2nc(CN3CCC(c4cc[nH]n4)CC3)cc(O)n2n1 | -4% | 0.75
13 | CN(Cc1cccc(C#N)c1)C(=O)C(=Cc1ccccc1)c1ccc(Cl)cc1 | -4% | 0.53
14 | O=S(=O)(N[C@H]1CCCc2ccccc21)c1cccc2c1N=S=N2 | -10% | 1.79
15 | COc1ccc(C(=O)Nc2c(C#N)c(-c3ccc(Cl)cc3)nn2C(C)(C)C)cc1 | 4% | -0.58
16 | CN1CCC[C@@H]1CCn1cnc(-c2ccccc2)c1-c1ccccc1C(=O)O | 12% | -2.19
17 | C[C@H](Nc1ncc(C#N)cc1Cl)C1(S(C)(=O)=O)CC1 | -11% | 0.93
18 | O=C1NCCN1CC1CCN(C(=O)[C@H]2C[C@@H]2c2cccc(O)c2)CC1 | -5% | 0.66
19 | CCCC1(CCC)NC(=O)N(CC(=O)c2ccc3c(c2)CCO3)C1=O | -30% | 3.53
20 | CN(CCN1CCCCC1=O)Cc1ccc(-c2ccco2)cc1 | -5% | 1.06
21 | CC[C@@H]1CN(Cc2cc3ccc(F)cc3[nH]c2=O)CC[C@]1(C)O | -4% | 0.69

Row | SMILES | % Inhibition | Z score
22 | CN(CC(=O)N[C@H](c1ccccc1)C1CCCCC1)c1cnccn1 | -11% | 1.09
23 | Cn1cc(-c2noc(CNc3ncccn3)n2)cn1 | 2% | -0.21
24 | Cc1ccc([C@@H](NC(=O)Nc2nc(-c3ccccc3)cs2)C(Cl)(Cl)Cl)cc1F | -3% | 0.49
25 | CC1OCCC1(C)NC(=O)Nc1ccc(C2CCC2)cn1 (stereo not drawn) | -6% | 0.78
26 | CCOc1c(Cl)cccc1CC(=O)N1CCCC[C@H]1c1ncon1 | -6% | 0.65
27 | Cc1noc(CCN2CC(O)=C(c3nc4ccccc4[nH]3)C2=N)n1 | 18% | -2.22
28 | Cc1cc(=O)n(CC(=O)N2Cc3nnc(C)n3[C@@H](C)C2)c2ccccc12 | -19% | 2.21
29 | O=C(NCc1ccc2c(c1)CCC2)NCC1CCC(O)C1 (stereo not drawn) | 0% | 0.06
30 | Cc1ccn2cc(CN3C(=O)CCNC3=O)nc2c1 | -14% | 1.82
31 | Cc1cc(C(=O)NC[C@]2(OCCO)CCOC2)c(C)o1 | -9% | 1.39
32 | COc1ccnc(NCCn2cc(C)cn2)n1 | -12% | 2.34
33 | Cc1cccnc1[C@H](C)n1cnc(-c2ccccc2)c1C | 3% | -0.44
34 | Nc1nc2nc(C(F)(F)C(F)(F)C(F)(F)C(F)(F)F)cc(O)n2n1 | -9% | 1.19
35 | COc1ccc(-c2noc(Cn3ncn(C)c3=O)n2)cc1OC | 4% | -0.58
36 | CCC[C@@]1(C2CCN(C(=O)c3ccccc3OC)CC2)NC(=O)N(Cc2ccco2)C1=O | 9% | -1.27
37 | C#Cc1ccc(C(=O)N2CCC3CCC(O)C2C3)cc1 (stereo not drawn) | 8% | -1.54
38 | CC1(C)CCC(NC(=O)c2cnn3c2CCC3)(C(N)=O)CC1 | 0% | -0.04
39 | CCc1nc(-c2cccc(C(=O)N(C)C3CCN(C)CC3)c2)ccc1C | 3% | -0.49
40 | Cc1ccc(OCC2c3ccsc3CCN2C(=O)CN(CC2CCCO2)C(=O)Nc2cccc(Cl)c2)c(C)c1 (stereo not drawn) | -10% | 1.33
41 | Nc1nc(CCCn2cnc3nccnc3c2=O)cs1 | -9% | 0.85
42 | CC1(C)NC(=O)N(CCCN2CC[C@@](O)(C(F)(F)F)C2)C1=O | 13% | -1.48

Row | SMILES | % Inhibition | Z score
43 | CCCNS(=O)(=O)NC[C@@H](c1ccc(Cl)cc1)n1ccnc1 | -6% | 0.94
44 | CN(C)c1ccc(NC(=O)OCC(F)(F)F)cn1 | -17% | 3.28
45 | Cc1cc(C(C)(C)C)oc1C(=O)NCCNC(=O)c1oc(C(C)(C)C)cc1C | -9% | 1.2
46 | O[C@@H]1C[C@H]2CN(Cc3ccccc3OCCCn3ccnc3)C[C@H]2C[C@@H]1O | -5% | 0.56
47 | COc1cccc2c(O)c(C(=O)NCCCc3nc4ccccc4n3C(C)C)cnc12 | -6% | 1.01
48 | Fc1cnccc1NCCCOC1CCCCC1 | -14% | 2.27
49 | Cc1noc(COC(=O)c2cccc(OCc3ccc(F)cc3)c2)n1 | -3% | 0.68
50 | C[C@@H](Cc1ccco1)NC(=O)c1ccco1 | -13% | 1.22
51 | N#CCN1CCC[C@H](NCC(F)(F)F)C1 | -4% | 0.53
52 | CCn1c(CC2CCNCC2)nn(Cc2cccc(F)c2F)c1=O | -4% | 0.77
53 | CN(Cc1nc2ccccc2c(=O)[nH]1)c1ccc(F)cc1 | -15% | 2.75
54 | Cc1cc(C(=O)N[C@H]2CCS(=O)(=O)C(C)(C)C2)no1 | -6% | 0.58
55 | Cc1cccc(C)c1Oc1ccccc1NC(=O)C(=O)Nc1ccnn1C(C)C | -8% | 1.54
56 | CCS(=O)(=O)CC(=O)N1CC(C)(C)N(C)c2cc(Br)ccc21 | -17% | 1.69
57 | Cc1cc(C(=O)N[C@@H]2C[C@H](COc3ccc(S(C)(=O)=O)cc3)[C@@H](O)[C@H]2O)no1 | -15% | 2.73
58 | N#Cc1ccc(N[C@@H]2c3ccccc3C[C@@H]2O)c(F)c1 | -6% | 0.93
59 | COc1cnc(CN2CCN(c3ncccn3)CC2)cc1O | 6% | -1.13
60 | CC1CCN(Cc2ccc(C(=O)NCCc3nccn3C)o2)CC1 | -16% | 1.57
61 | Cc1ccc(CCNC(=O)c2cc(-c3cnn(-c4ccc(C(C)C)cc4)c3C)nc3ccccc23)cc1 | -6% | 0.67
62 | CC(C)[C@H](NS(=O)(=O)CC1CCCC1)c1ncnn1C | 2% | -0.27
63 | NC(=O)c1cc2cc(NC(=O)c3ccccc3Cl)ccc2n1Cc1cccc(F)c1 | -3% | 0.33

Row | SMILES | % Inhibition | Z score
64 | COc1ccc(C(=O)N2c3ccccc3N=C(c3ccc(Br)cc3)C[C@H]2c2ccccc2)cc1 | 3% | -0.3
65 | CN(CC(F)(F)F)C(=O)Cn1cnc2c(c1=O)CCC2 | -6% | 1.11
66 | CN(C(=O)C[C@@H](c1ccc(Cl)c(Cl)c1)N1CCOCC1)C(C1CC1)C1CC1 | -35% | 4.13
67 | CCc1nc(C)c(CN2Cc3cc(C)ccc3O[C@H](c3ccsc3)C2)[nH]1 | -8% | 1.05
68 | O=C1N[C@H](c2ccccc2)C(=O)N2CCC[C@H]12 | 0% | -0.04
69 | Cc1cc([C@@H](C#N)c2ccc(Cl)cc2)c(Cl)cc1NC(=O)CN1C(=O)c2ccccc2C1=O | -3% | 0.52
70 | O=C(NCCc1cccs1)C1CCN(C(=O)c2ccns2)CC1 | -3% | 0.64
71 | Cc1nn(C)c(C)c1S(=O)(=O)N1CCCN(C(=O)[C@H]2CCOC2)CC1 | -9% | 1.35
72 | CC(=O)N(CCc1noc(C(C)C)n1)[C@H]1CCN(S(=O)(=O)Cc2cccc(F)c2)C1 | -5% | 0.59
73 | Cc1nn(-c2ccccc2)c2sc(C(=O)N3CCNC(=O)C3)cc12 | -9% | 0.74
74 | Cc1cc(C)n(Cc2cccc(C(F)(F)F)c2)c1C(=O)NCc1cccc(C(F)(F)F)c1 | -13% | 1.13
75 | Cc1nnc(CNC(=O)Nc2cccc3c4c(oc23)CCCC4)o1 | 49% | -6.67
76 | CC(C)(C)N1CC[C@H]1c1nc(-c2ccncc2)no1 | -6% | 1.05
77 | FC(F)(F)c1cc(N2CCC(COc3ccccn3)CC2)nc(-c2ccncc2)n1 | 2% | -0.41
78 | CN1CCN(C(=O)c2ccc(Cn3ccnn3)o2)Cc2cccnc21 | 6% | -0.96
79 | Cc1nnc(NC(=O)c2cn(Cc3cccc(F)c3)nc2OCc2cccc(F)c2)s1 | -24% | 2.72
80 | O=C(NCCC1Cc2ccccc2C1)N[C@H]1CC[C@H](O)CC1 | 7% | -0.78
81 | O=C1C[C@@H](C(=O)Nc2cccc(F)c2)n2nc(-c3ccccc3)cc2N1 | -3% | 0.57
82 | COc1ccccc1CCNC(=O)c1ncoc1-c1ccc(C)s1 | -3% | 0.29
83 | CCn1c(C)nnc1CNC(C)(C)c1ncc(C)s1 | -11% | 1.26
84 | Cc1cccc(NC(=O)[C@@H](C#N)C(=O)CC(C)C)c1 | -12% | 1.12

— ChEMBL document CHEMBL4888484, “Replenishing the malaria drug discovery pipeline: Screening and hit evaluation of the MMV Hit Generation Library 1 (HGL1) against asexual blood stage Plasmodium falciparum ,using a nano luciferase reporter read-out” (2022)
